# Data taken from publication PMC4336329 (PLoS ONE, 2015).
# Screen size: about 310,000 compounds; about 2,200 (0.71%) showed an effect of 50% or more. Effects have a minus sign here. The list shows a part of the results.
# Target: human ether-à-go-go-related gene (hERG) potassium channel (human, UniProt Q12809)
# Assay: primary screen, population patch clamp on CHO cells stably expressing hERG
# Chain of human ether-à-go-go-related gene (hERG) potassium channel (Q12809 whole entry, looked up): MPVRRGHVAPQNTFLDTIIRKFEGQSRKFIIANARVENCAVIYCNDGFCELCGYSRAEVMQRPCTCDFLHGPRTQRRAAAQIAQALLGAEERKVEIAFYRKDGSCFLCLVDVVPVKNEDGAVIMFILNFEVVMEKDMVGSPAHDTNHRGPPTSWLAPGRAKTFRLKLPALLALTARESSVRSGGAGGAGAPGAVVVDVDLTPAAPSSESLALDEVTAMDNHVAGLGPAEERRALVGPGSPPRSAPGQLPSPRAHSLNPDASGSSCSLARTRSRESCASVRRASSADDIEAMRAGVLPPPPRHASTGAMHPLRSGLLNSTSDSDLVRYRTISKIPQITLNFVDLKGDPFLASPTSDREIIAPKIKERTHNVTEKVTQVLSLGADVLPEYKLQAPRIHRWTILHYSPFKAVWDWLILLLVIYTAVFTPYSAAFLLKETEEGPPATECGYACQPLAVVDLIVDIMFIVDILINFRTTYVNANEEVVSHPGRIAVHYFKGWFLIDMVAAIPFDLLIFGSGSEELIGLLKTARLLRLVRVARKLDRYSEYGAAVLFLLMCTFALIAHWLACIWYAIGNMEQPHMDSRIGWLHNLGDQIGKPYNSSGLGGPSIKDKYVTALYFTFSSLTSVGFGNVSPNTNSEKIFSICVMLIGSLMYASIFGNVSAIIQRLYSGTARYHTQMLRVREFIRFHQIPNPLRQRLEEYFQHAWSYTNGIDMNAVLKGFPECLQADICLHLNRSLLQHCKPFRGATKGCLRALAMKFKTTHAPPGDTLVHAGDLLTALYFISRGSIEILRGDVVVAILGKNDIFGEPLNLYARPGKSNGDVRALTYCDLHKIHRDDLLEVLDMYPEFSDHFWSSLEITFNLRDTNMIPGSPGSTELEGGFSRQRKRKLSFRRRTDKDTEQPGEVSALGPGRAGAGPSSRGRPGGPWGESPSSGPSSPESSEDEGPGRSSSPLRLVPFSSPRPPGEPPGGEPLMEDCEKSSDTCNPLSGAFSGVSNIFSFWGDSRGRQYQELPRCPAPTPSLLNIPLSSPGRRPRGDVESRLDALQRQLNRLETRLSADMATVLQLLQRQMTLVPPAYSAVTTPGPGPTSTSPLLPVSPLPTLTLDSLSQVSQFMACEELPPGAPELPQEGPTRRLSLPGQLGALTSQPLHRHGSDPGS
row,Compound,"hERG current change (%, negative = inhibition) at 1uM [%]"
1,COC(=O)N/N=C\c1c(C)[nH]n(-c2ccccc2)c1=O,16.4
2,CC(=O)Oc1ccc(N(C(C)=O)S(=O)(=O)c2cccs2)c2ccccc12,10.6
3,C=CCn1c(SCC(=O)Nc2cccc(OC)c2)nnc1-c1cccnc1,-20.9
4,COc1ccc2cc(C(=O)C3CCCN(C(=O)CCc4cnn(C)c4)C3)ccc2c1 (stereo not drawn),8.19
5,O=C(Nc1cccc2ncccc12)c1ccc(Cl)cc1,12.7
6,CNc1c(NC(=O)COc2ccc(Cl)cc2)c(=O)oc2ccccc12,6.12
7,CC(=O)N1CCC(N(CCN2CCOCC2)C(=S)Nc2cc(C)ccc2C)CC1,11.1
8,Cc1ccc(C(=O)Nc2ccc(N3CCN(S(C)(=O)=O)CC3)cc2)cc1,6.82
9,CCc1nn(-c2ccccc2)c(N)c1-c1ccc(OC)c(OC)c1,8.68
10,CCCNC(=O)c1cn(CC)c2cc(N3CCN(C(=O)c4ccco4)CC3)c(F)cc2c1=O,-7.06
11,O=C(/C=C/c1ccc(-c2ccccc2[N+](=O)[O-])o1)c1ccccc1,8.41
12,CC(C)(C)n1ncc2c(=O)n(Cc3ccccc3Br)cnc21,10.3
13,CC(=O)CSc1ncnc2sc3c(c12)CCC3,11.8
14,COc1cc(C2NC(=O)NC(C)=C2[N+](=O)[O-])cc(OC)c1OC (stereo not drawn),14.4
15,c1ccc2c(c1)nc1n2CCN1,12.8
16,COc1ccccc1NC(=O)CCCC(=O)OCC(=O)c1ccc(F)cc1,7.77
17,Cn1nnnc1SCC(=O)Nc1ccc(N2CCOCC2)cc1,4.43
18,COc1ccc(CCNC(=O)CSc2nc3ccccc3o2)cc1,2.32
19,Cc1cc(S(=O)(=O)NCc2ccccc2)ccc1OCC(=O)NCc1ccncc1,9.34
20,CNC(=S)N/N=C/c1cc(Br)cc(Br)c1O,1.91
21,COCC(=O)N1CCC(Oc2ccc(C(=O)N3C[C@H]4CC[C@H]3C4)cc2)CC1,10.7
22,COc1ccc(N(CC(=O)NC2CCCCC2)C(=O)c2snc(C(N)=O)c2N)cc1,10.7
23,CCOc1ccc(C(C)=O)cc1CN1C(=O)NC2(CCCCC2C)C1=O (stereo not drawn),6.38

row,Compound,"hERG current change (%, negative = inhibition) at 1uM [%]"
1,COCCN1C=C(C(=O)OC)C(c2ccc3c(c2)OCO3)C(C(=O)OC)=C1,7.91
2,CCC1Cc2c(nc(N)c3c(N)nc(N4CCCCC4)c(C#N)c23)O1 (stereo not drawn),-6.28
3,O=C1Nc2cc(C(=O)NCCN3CCCCCC3)ccc2S/C1=C\c1ccccc1,2.56
4,O=C(CCNC(=O)c1ccc(Cl)cc1)NN1C(=O)NC2(CCCCC2)C1=O,8.84
5,O=C(COc1ccccc1)NS(=O)(=O)c1ccc(Cl)cc1,16.6
6,CCN(CC)C(=O)c1cnn(-c2ccccc2)c1NC(=O)c1ccco1,1.12
7,Nc1ccc(NC(=O)c2ccco2)c(Cl)c1,12.5
8,FC(F)(F)c1cccc(-c2nnc3ccc(C(F)(F)F)cn23)c1,-25.2
9,Cc1ccc(S(=O)(=O)c2cc3ccccc3oc2=Nc2ccc3c(c2)OCO3)cc1,12.2
10,CC(=O)c1ccc(OCc2cc(C(=O)N(C)CCOc3ccc(C)cc3)no2)cc1,12.1
11,CC(C)(C)C(=O)Nc1ccnn1C1CCN(C(=O)c2cccc(Cl)c2)CC1,12.7
12,N#C/C(C(N)=O)=C1/SC=C(c2ccccc2)N1c1ccccc1,11.4
13,COCCN(C(=O)Cc1cccs1)C(C(=O)NCc1ccc(OC)cc1)c1ccccc1 (stereo not drawn),8.8
14,Cc1cc(C(=O)CN2C(=O)C(=O)N(Cc3ccccc3)C2=O)c(C)n1-c1ccc2c(c1)OCCO2,9.24
15,CSc1nc(Cc2ccccc2)cc(=O)[nH]1,13.2
16,CCc1ccc(/C=C2/C(=O)NC(=O)N2C(C)=O)cc1,8.92
17,CCOc1ccc(NC(=O)CC2C(=O)N(C)C(=S)N2Cc2ccc3c(c2)OCO3)cc1 (stereo not drawn),5.45
18,CC1Cc2nc(SCC(=O)NCc3ccco3)n(-c3ccccc3)c(=O)c2S1 (stereo not drawn),-3.27
19,Cc1ccc(OCc2nc(-c3ccccn3)no2)c(Br)c1,7.71
20,CC1CN(C(=O)c2cccs2)CC(C)O1 (stereo not drawn),7.22
21,O=C(CCS(=O)(=O)c1ccccc1)Nc1ccc(-c2nc3ccccc3s2)c(O)c1,10
22,Cn1c(=O)c2c(nc(CN3CCN(C(=O)c4ccco4)CC3)n2CC(=O)C(C)(C)C)n(C)c1=O,15.9
23,CCC(NC(=O)NCc1ccc2c(c1)OCO2)(C(F)(F)F)C(F)(F)F,-0.276

row,Compound,"hERG current change (%, negative = inhibition) at 1uM [%]"
1,COc1ccc(/C(C)=N/NC(=O)CNC(=O)Cc2ccccc2)c(OC)c1,8.11
2,CCN(Cc1cccc(F)c1)C(=O)c1ccc2ccccc2n1,5.47
3,COc1ccc(/C=C/C(=O)OCC(=O)NC2CCCCC2C)c(OC)c1 (stereo not drawn),5.67
4,CC(C)c1ccc(NC(=O)NCc2ccc3c(c2)OCO3)cc1,11.9
5,Cc1cc(OCCCn2ccnc2)cc(C)c1Cl,-4.75
6,CC(=O)c1ccc2c(c1)C1C(Cl)C(Sc3ccccc3[N+](=O)[O-])CC1C(c1ccccc1)N2 (stereo not drawn),-3.01
7,Cc1ccc(S(=O)(=O)NNc2ccccc2)cc1,14.3
8,CCN1CCCC1CNC(=O)c1cc2cc(OC)c(OC)cc2[nH]1 (stereo not drawn),16.2
9,Cc1csc(NC(=O)COCC(=O)O)c1-c1nc2ccccc2s1,4.92
10,Cc1sc(C(=O)NCc2cccnc2)c2nc(C)n(CC(=O)NCc3cccnc3)c(=O)c12,11
11,CC(C)CNC(=S)N1CCC(C(=O)c2ccc3c(c2)OCCO3)CC1,9.85
12,CCc1nnc(NC(=O)c2cccc(S(=O)(=O)N3CCCC3)c2)s1,17.3
13,CCn1c2ccccc2c2n[nH]c(=S)nc21,15.3
14,NC(=O)N/N=C1\c2ccccc2-c2c(C(N)=O)cccc21,13.1
15,COc1ccc(NC(=O)c2sc(SCc3ccccc3)nc2N)cc1,13.7
16,COc1ccc(N(C(=O)c2ccc(S(=O)(=O)N3CCOCC3)cc2)C2C=CS(=O)(=O)C2)cc1 (stereo not drawn),-14.2
17,COc1cccc(/C=N/NC(=O)CCCC(=O)Nc2ccc(Br)cc2)c1,5.21
18,COc1ccccc1N1CCN(C2CCCN(C(=O)c3cscn3)C2)CC1 (stereo not drawn),12.7
19,O=C(CN1CCN(C/C=C/c2ccccc2)CC1)NCc1ccccc1,-53.6
20,CC(C)CC(C(=O)O)N(Cc1ccccc1)Cc1ccccc1 (stereo not drawn),12.3
21,COC(=O)c1cc(Br)c(=O)n(CCN2CCCCC2)c1,20.9
22,Cc1nn(Cc2ccc(C(=O)N3c4ccc(F)cc4CCC3C)o2)c(C)c1Br (stereo not drawn),7.41
23,CC1CCN(S(=O)(=O)c2ccc(C(=O)NC3CCS(=O)(=O)C3)cc2)CC1 (stereo not drawn),-4.12

row,Compound,"hERG current change (%, negative = inhibition) at 1uM [%]"
1,Nn1c(SCC(=O)NC2CCCCC2)nnc1-c1ccccc1,9.28
2,O=C(O)C(Cc1cn[nH]n1)=NO,9.55
3,CCc1nc(N)c(C#N)c(-c2cccnc2)c1C,11.8
4,Cc1ccc(S(=O)(=O)N2CCCC2C(=O)OCc2nc3ccccc3s2)cc1 (stereo not drawn),8.44
5,Cc1ccc(C2CC(c3ccc(F)cc3)Nc3nc(N)nn32)cc1 (stereo not drawn),10.4
6,O=c1[nH]c2cc3c(cc2cc1CN(CC1CCCO1)S(=O)(=O)c1ccc(Cl)cc1)OCCO3 (stereo not drawn),0.469
7,CCOC(=O)C1(CCOC)CCN(Cc2cnc(-c3cccc(C)c3)nc2)CC1,7.05
8,CC(=O)Nc1ccc(C(=O)/C=C/c2ccco2)cc1,7.83
9,COc1cccc(C(=O)NCC(=O)OCC(=O)Nc2ncc(Cl)cc2Cl)c1,5.04
10,Cc1cccc(NC(=O)Nc2ccc(Oc3c(F)c(F)c(F)c(F)c3F)cc2)c1,4.95
11,CC12CN3CC(C)(CN(C1)C3c1cc(Br)ccc1O)C2=O (stereo not drawn),9.25
12,COc1ccc(CCNC(=O)CSc2nc3ncccc3[nH]2)c(OC)c1,9.49
13,Cc1nc2ccccn2c1C(=O)NC1CCCCC1,9.19
14,O=C(c1cnc2ccccn2c1=O)N1CCc2ccccc21,-0.387
15,COCCCNC(=O)C1CCN(C(=O)Nc2ccc(Cl)cc2)CC1,11.2
16,O=C(OCc1nc2ccc(Cl)cc2n1CCO)c1ccccc1C(=O)c1ccccc1,7.18
17,Cc1ccc(N(C)C(=O)n2cnc3ccccc32)cc1,7.51
18,CC(C)CNC(=O)c1cccc2c1-c1ccccc1C2=O,14
19,CCCCc1ccc(S(=O)(=O)NNC(=S)NCc2ccco2)cc1,2.2
20,CC(C)C(OC(=O)CN1C(=O)COc2ccccc21)C(=O)NC1CCCCC1 (stereo not drawn),4.41
21,Cc1cccc(C)c1NC(=S)Nc1ccc(Cl)c(Cl)c1,10.6
